Reference: PubChem BioAssay AID504832 (National Center for Advancing Translational Sciences (NCATS), 2011)
The campaign covered roughly 310,000 compounds. About 18,000 (5.8%) were called active. The inconclusive results got no clear call from the source; some entries with a clear call stand among them for comparison. The call rests on the fitted dose curve; in most records, active means well fitted inhibition curve with a large enough effect; inconclusive means small, poorly fitted or top-dose-only effect, or another doubt; inactive means no such curve, though single readings can be large or run the other way. No potency is given beside an inconclusive call; the fits are too rough.

Test: Primary qHTS for delayed death inhibitors of the malarial parasite plastid, 48 hour incubation
Conditions: P. falciparum luciferase growth in erythrocytes; series mostly up to 28.7 µM; activity change, negative = inhibition: at the top concentration
How it was run: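 A one-generation exposure of luciferase-tagged malaria parasites in RPMI 1640/Albumax erythrocyte culture, 37 C and 5% CO2. Inhibition is inferred from decreased luminescence after adding detection reagent.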
On the % scale 0 is the no-effect control and ±100 the full control effect; potency means the concentration at half of the fitted maximal effect; tags describe the fitted curve by direction and shape.

| SMILES | Potency | activity change, negative = inhibition |
| --- | --- | --- |
| COc1ccc([C@H]2CC(=O)C=C(c3ccccc3C(F)(F)F)C2)cc1 | inconclusive [inhibitor, single point] | – |
| COc1ccc2c(c1OC)C(=O)N1N=C(c3ccccc3)CC21 (stereo unspecified) | active: 4.15 µM | – |
| N#Cc1ccc(C(=O)N2CCN(C(=O)C3CCCO3)CC2)cc1 (stereo unspecified) | inconclusive [inhibitor, partial curve, poor fit] | – |
| Fc1ccc(Cn2nnnc2C(c2cccs2)N2CCN(C3CCCCC3)CC2)cc1 (stereo unspecified) | inconclusive [inhibitor, single point] | – |
| COc1cccc(NC(=O)Cc2nc(-c3ccccc3)sc2-c2ccc(C)cc2)c1 | inconclusive [inhibitor, single point] | – |
| CCCCNCCOCCSc1ccc(Cl)cc1 | inconclusive [inhibitor, partial curve, poor fit] | – |
| CC(C)N1C(=O)C(Cc2nc3ccccc3c(=O)n2-c2ccccc2)c2ccccc21 (stereo unspecified) | active: 9.28 µM | – |
| CCc1ccc2nc(NC(=O)C3CCN(c4ncnc5sc(C)c(C)c45)CC3)sc2c1 | inconclusive [inhibitor, single point] | – |
| CCCC1(c2ccccc2)NC(=O)N(CCN2C(=O)c3ccccc3C2=O)C1=O (stereo unspecified) | inconclusive [inhibitor, single point] | – |
| CCOc1ccccc1C1C2=C(COC2=O)Nc2cc3c(cc21)OCO3 (stereo unspecified) | inconclusive [inhibitor, partial curve, poor fit] | – |
| COc1cccc(N(CC(=O)NCc2ccco2)C(=O)CCC(=O)Nc2nccs2)c1 | inconclusive [inhibitor, partial curve, poor fit] | – |
| COc1cc(OC)cc(C(=O)NCCNC(=O)c2ccccn2)c1 | – | inactive: -5.22% |
| COCCNC(=S)N=Nc1c(O)[nH]c2ccc([N+](=O)[O-])cc12 | inconclusive [inhibitor, full curve, poor fit] | – |
| O=C(CSc1ccc2c(c1)OCCO2)NCCN1C(=O)CSC1=O | – | inactive: 37.2% |
| COc1ccc(Cl)cc1NC(=O)CN1CCN(S(=O)(=O)N2CCCCC2)CC1 | inconclusive [inhibitor, partial curve, poor fit] | – |
| NC(=S)N/N=C/c1ccc(-c2ccc([N+](=O)[O-])cc2)o1 | inconclusive [inhibitor, single point] | – |
| Cc1ccc(NC(=S)Nc2ccc(C(C)C)cc2)cc1S(=O)(=O)N1CCCCCC1 | inconclusive [inhibitor, single point] | – |
| CC(NC(=O)c1ccc(F)cc1)c1nc2ccccc2n1Cc1ccccc1F (stereo unspecified) | inconclusive [inhibitor, single point] | – |
| CN1CCC(N(C)c2ncnc3ccc(Br)cc23)CC1 | inconclusive [inhibitor, single point] | – |
| CCC(C)(C)c1ccc(CC(C)CN2C[C@@H](C)O[C@@H](C)C2)cc1 (stereo partly specified) | inconclusive [inhibitor, single point] | – |
| Cc1nc2ccccc2c(=O)n1/N=C/c1cn[nH]c1-c1ccccc1 | – | inactive: -1.92% |
| CCC(=O)NC(=S)NNC(=O)c1ccc([N+](=O)[O-])cc1 | inconclusive [inhibitor, full curve, poor fit] | – |

| SMILES | Potency | activity change, negative = inhibition |
| --- | --- | --- |
| Cc1cc2cc3c(cc2nc1SCc1ccc(C(=O)O)cc1)OCCO3 | – | inactive: 11.1% |
| O=C(CSCc1c(F)cccc1Cl)NCCc1ccccc1 | – | inactive: 22.4% |
| Cc1nn(Cc2ccc(C(=O)Nc3nccs3)cc2)c(C)c1Cl | inconclusive [inhibitor, single point] | – |
| Cc1ccc(S(=O)(=O)N2CCC(C(=O)OCC(=O)N(C)C3CCCCC3)CC2)cc1C | – | inactive: 5.24% |
| CS(=O)(=O)N(CCc1ccccc1)CC(=O)NCc1ccccn1 | – | inactive: 10.6% |
| Cc1cc(C(=O)NC2CCCc3ccccc32)ccc1[N+](=O)[O-] (stereo unspecified) | inconclusive [inhibitor, partial curve, poor fit] | – |
| CCN(CC(=O)Nc1c(F)cccc1F)C(=O)COc1ccc2c(C)cc(=O)oc2c1 | – | inactive: -0.831% |
| COCCn1c(=NC(=O)c2ccc3c(c2)OCO3)c(C#N)cc2c(=O)n3cccc(C)c3nc21 | inconclusive [inhibitor, single point] | – |
| CCOC(=O)C1=C(C)NC(=S)NC1c1ccco1 (stereo unspecified) | inconclusive [inhibitor, single point] | – |
| CCOCCCNC(=O)C(NC(=O)CC1NC(=O)NC1=O)c1ccc(Cl)cc1 (stereo unspecified) | – | inactive: 1.65% |
| COc1cccc(NC(=O)CN(C)C(=O)c2cc(-c3ccc(C)o3)nc3ccccc23)c1 | active: 11.7 µM | – |
| Cc1csc(SCC(=O)Nc2ccc(S(=O)(=O)N3CCCC3)cc2)n1 | inconclusive [inhibitor, single point] | – |
| COc1ccc(CCNC2=C(Cl)C(=O)N(Cc3ccccc3)C2=O)cc1OC | active: 11.7 µM | – |
| Cc1ccccc1N1CCN(c2ncnc3c2cnn3Cc2ccc(Cl)cc2)CC1 | inconclusive [inhibitor, partial curve] | – |
| CCCCSc1nc2sc3c(c2c(=O)n1-c1ccc(C)cc1)CCN(C)C3 | inconclusive [inhibitor, partial curve, poor fit] | – |
| CCCCCC(=O)Nc1ccc(N2CCOCC2)c(S(=O)(=O)Nc2ccc(OC)cc2)c1 | active: 14.7 µM | – |
| O=C(Nc1ccc(O)cc1)C1CC=CCC1 (stereo unspecified) | inconclusive [inhibitor, partial curve, poor fit] | – |
| COc1ccccc1N1CCN(Cc2cc3c(cc2Br)OCCO3)CC1 | inconclusive [inhibitor, partial curve, poor fit] | – |
| COc1ccc(NC(=O)c2cccc3c2C(=O)c2ccc(-c4cnc(OC)nc4)cc2S3(=O)=O)cc1 | inconclusive [inhibitor, single point] | – |
| C=COCCn1c(C)c(C(=O)OCC)c2cc(O)ccc21 | inconclusive [inhibitor, single point] | – |
| CC(NS(=O)(=O)/C=C/c1ccccc1)C(=O)NCCc1ccc(S(N)(=O)=O)cc1 (stereo unspecified) | inconclusive [inhibitor, single point] | – |
| CCOC(=O)Cn1cnc([N+](=O)[O-])n1 | inconclusive [inhibitor, full curve, poor fit] | – |

| SMILES | Potency | activity change, negative = inhibition |
| --- | --- | --- |
| C=CCc1c(OC)ccc2c1c(S(=O)(=O)c1ccc(C)cc1)cn2COC | inconclusive [inhibitor, single point] | – |
| CCOc1ccc(OCCSc2nc(-c3ccccc3)cc(=O)[nH]2)cc1 | – | inactive: -2.51% |
| O=C(NCCCO)c1ccc2[nH]c3ccccc3c2c1 | inconclusive [inhibitor, full curve, poor fit] | – |
| OCC[C@H]1C[C@H](O)[C@@H](O)[C@]2(Cc3ccccc3CCO2)O1 | – | inactive: 9.31% |
| Clc1ccc(OC2CCN(Cc3nc(CC4CC4)no3)CC2)cc1 | – | inactive: 12.8% |
| Cc1cccc(-n2ncc3c(NCc4ccccc4)ncnc32)c1 | – | inactive: 47.2% |
| Cn1cccc1C(=O)NCC(c1ccco1)N1CCCCC1 (stereo unspecified) | inconclusive [inhibitor, partial curve, poor fit] | – |
| C=CCN(c1ccccc1)S(=O)(=O)c1cccc(C(=O)Nc2cccc(C)n2)c1 | inconclusive [inhibitor, single point] | – |
| O=C(Nc1ccc(-c2nnn(CC(=O)N3CCN(C(=O)c4ccco4)CC3)n2)cc1)c1ccc(F)cc1 | inconclusive [inhibitor, partial curve, poor fit] | – |
| COc1ccc(C(CNC(=O)COc2ccccc2)N2CCCCC2)cc1 (stereo unspecified) | inconclusive [inhibitor, partial curve, poor fit] | – |
| CC(=O)N1c2ccc(S(=O)(=O)N3CCC(C(=O)Nc4ccc(C)cn4)CC3)cc2CC1C (stereo unspecified) | inconclusive [inhibitor, partial curve, poor fit] | – |
| Cc1cc(N/N=C/c2ccccc2Cl)nc(NCc2ccccc2)n1 | active: 1.47 µM | – |
| Cc1cc(C)c(NC(=O)C2CCN(C(=O)c3ccco3)CC2)c(C)c1 | – | inactive: 21.4% |
| O=C(CCCN1C(=O)/C(=C\c2ccccc2)SC1=S)Nc1ccc(C(=O)O)cc1 | inconclusive [inhibitor, single point] | – |
| Cc1cnc(CN(C)Cc2nc(Cc3cccc(C(F)(F)F)c3)no2)[nH]1 | inconclusive [inhibitor, partial curve] | – |
| Cc1ccc2c(c1)[C@H]1[C@H](CO2)[C@H](c2ccccc2)[C@]2(C)C(=O)Nc3cc(Cl)ccc3C(=O)N12 | active: 8.28 µM | – |
| CC(C)(CN=C1NS(=O)(=O)c2ccccc21)CNC(=O)c1ccccc1 | inconclusive [inhibitor, partial curve] | – |
| COc1ccc(S(=O)(=O)N(C(C)=O)c2ccc(OC(C)=O)c3ccccc23)cc1[N+](=O)[O-] | active: 6.57 µM | – |
| CCOc1ccccc1N1CCN(C(=O)c2cc(S(=O)(=O)N3CCCCC3)ccc2C)CC1 | inconclusive [inhibitor, single point] | – |
| COc1ccc(NC(=O)C2CC(=O)N(C)C(=Nc3ccc4c(c3)OCO4)S2)cc1 (stereo unspecified) | active: 10.4 µM | – |
| Cc1ccc(C)c(N2CCN(C(=O)c3ccc4nc(N5CCOCC5)sc4c3)CC2)c1 | inconclusive [inhibitor, single point] | – |
| COc1ccccc1N1CCN(C(=O)c2cc3cc(C)ccc3[nH]2)CC1 | inconclusive [inhibitor, partial curve, poor fit] | – |
